Several values for one entry are separate records, joined by “and”; a condition that tells them apart may be missing. Equal entries are not always repeated. Among all 340,000 compounds or so, about 12,000 (3.5%) were called active. This list was built around the results that the source calls inconclusive (neither active nor inactive); the mix of calls is not that of the screen. Calls follow the shape of the dose curve; as a rule, active = well fitted inhibition curve with a large enough effect; inconclusive = small, poorly fitted or top-dose-only effect, or another doubt; inactive = no such curve, though single readings can be large or run the other way. Potencies beside an inconclusive call are fits to weak or partial responses and may not hold up.
Assay: qHTS Assay for Inhibitors of Hepatitis C Virus (HCV)
Conditions: Huh7.5.1 HCVcc-Cre (HCVcc is cell-culture hepatitis C virus) infection, luciferase reporter, 44 h; activity change, negative = inhibition: at 41.8 µM (top of the series) unless noted
Outline: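 1,000 cells/well; 4 h culture; + compound; + HCVcc-Cre (~0.5 moi); 44 h; luciferase substrate, RT 15 min; read 15 sec.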
With `COc1ccc(C(=O)c2cc(OC)c(OC)c(OC)c2)cc1OC` the Potency was inconclusive: 31.6 µM [inhibitor, single point].
With `Cc1ccc(N(CC(=O)N2CCc3ccccc32)C2=NC(=O)CS2)cc1` the Potency was active: 6.31 µM.
With `CC1CCCN(C(=O)COc2ccc(Nc3ccccc3)cc2)C1` (stereo not drawn) the “activity change, negative = inhibition” value was inactive: -4.88%.
For `CCCNC(=O)c1cc2c3ccccc3n(C)c2s1`, the Potency was inconclusive: 12.6 µM [inhibitor, partial curve].
For `O=C(CN1CCN(c2ncc(C(F)(F)F)cc2Cl)CC1)N1CCN(c2ncc(C(F)(F)F)cc2Cl)CC1`, the Potency was inconclusive: 12.6 µM [inhibitor, partial curve].
With `CC(=O)c1ccc(NC(=O)c2ccc(-n3cnnn3)cc2)cc1` the Potency was inconclusive: 3.55 µM [inhibitor, single point].
For `O=Cc1cc(Cl)ccc1OCCN1CCC(Cc2ccccc2)CC1`, the Potency was inconclusive: 10 µM [inhibitor, partial curve].
For `O=C(NNc1c2ccccc2nc2ccccc12)c1cc2ccccc2cc1O`, the Potency was active: 2.82 µM.
In the case of `CCc1noc(C)c1C(=O)Nc1cc(S(=O)(=O)N2CCOCC2)ccc1OC(C)C`, the Potency is reported as inconclusive: 2.51 µM [inhibitor, single point].
In the case of `COCCn1c(CN2CCC(Cc3ccccc3)CC2)nc2c1c(=O)n(C)c(=O)n2C`, the Potency is reported as inconclusive: 3.16 µM [inhibitor, partial curve].
For `CCN(CC)S(=O)(=O)c1ccc(Cl)c(NC(=O)c2ccncc2)c1`, the “activity change, negative = inhibition” value was inactive: -20.9%.
For `CNC(=S)N1N=C(c2ccc(OC)cc2)CC1c1ccc(N(C)C)cc1` (stereo not drawn), the Potency was active: 11.2 µM.
With `Cc1cccc(N(Cc2cc(=O)[nH]c3ccccc23)C(=O)CCl)c1` the Potency was inconclusive: 14.1 µM [inhibitor, single point].
With `CC(C1CC2CCC1C2)N1CC(O)=C(c2nc3ccccc3[nH]2)C1=N` (stereo not drawn) the Potency was inconclusive: 5.62 µM [inhibitor, single point].
In the case of `Cc1ccc(C(=O)C(C)OC(=O)CN2C(=O)NC3(CCCC3)C2=O)cc1` (stereo not drawn), the Potency is reported as inconclusive: 0.562 µM [inhibitor, partial curve, poor fit].
With `Nc1c(C(=O)N/N=C/c2ccc(F)cc2)oc2nc(-c3ccccc3)cc(-c3ccco3)c12` the activity change, negative = inhibition was inconclusive: -46.7% [inhibitor].
With `c1ccc(Sc2ncnc3c2oc2ccccc23)cc1` the “activity change, negative = inhibition” value was inactive: -25.1%.
For `COc1ccc(C(=O)N2CCN(C(=O)c3ccc(-c4ccccc4)cc3)CC2)cc1OC`, the Potency was inconclusive: 11.2 µM [inhibitor, partial curve, poor fit].
In the case of `O=C(OCCc1cc2ccccc2c(=O)o1)c1ccccc1C(F)(F)F`, the Potency is reported as active: 22.4 µM.
For `COc1ccccc1CCNS(=O)(=O)c1cc2c3c(c1)CCN3C(=O)CC2`, the Potency was inconclusive: 3.16 µM [inhibitor, partial curve].
With `Cc1ccc(CNc2oc(-c3cccs3)nc2C#N)cc1` the “activity change, negative = inhibition” value was inactive: -28.4%.
In the case of `C[C@]12C(=O)N(c3ccc(C(F)(F)F)cc3)C(=O)N1[C@@H]1c3ccccc3OC[C@@H]1[C@H]2c1ccccc1`, the Potency is reported as inconclusive: 2.51 µM [inhibitor, partial curve, poor fit].
In the case of `CCN1/C(=C\C=C\C2=[N+](CC)c3ccccc3C2(C)C)C(C)(C)c2ccccc21`, the Potency is reported as active: 0.562 µM.
For `CCCNC(=O)c1cc(Cl)c(NC(=O)C2=CSCCO2)cc1OC`, the Potency was inconclusive: 10 µM [inhibitor, partial curve].
With `Cc1ccnc(SCC(=O)Nc2sccc2C#N)n1` the “activity change, negative = inhibition” value was inactive: -17.1%.
With `Cc1ccc(CSc2nc3c(c(=O)[nH]2)C(c2ccncc2)C2=C(CCCC2=O)N3)cc1` (stereo not drawn) the Potency was inconclusive: 7.08 µM [inhibitor, partial curve] and inconclusive: 5.62 µM [inhibitor, single point].
For `Cc1ccc(CN2CCC(Oc3cccc(C(=O)N(C)CCN(C)C)c3)CC2)cc1C`, the Potency was inconclusive: 6.31 µM [inhibitor, full curve].
For `Cc1ccc2c(c1)C1C=CCC1C(C(=O)O)N2` (stereo not drawn), the activity change, negative = inhibition was inactive: 0.95% [at 0.335 µM].
In the case of `O=CNc1ccc2c(c1)Cc1cc([N+](=O)[O-])ccc1-2`, the Potency is reported as inconclusive: 3.55 µM [inhibitor, partial curve].
In the case of `COc1ccc(NS(=O)(=O)c2ccc(N3CCN(CCO)CC3)c([N+](=O)[O-])c2)cc1`, the Potency is reported as inconclusive: 8.91 µM [inhibitor, partial curve].
For `Cc1ccc(-c2nn(CC(=O)NCc3cc(-c4nn(C)c(=O)c5ccccc45)ccc3C)c(=O)c3ccccc23)cc1`, the Potency was inconclusive: 3.16 µM [inhibitor, partial curve].
For `Cc1cc(C(=O)N/N=C/c2cc(Cl)cc([N+](=O)[O-])c2O)n[nH]1`, the “activity change, negative = inhibition” value was inactive: 35.3%.
For `CC(=O)C1=C(O)C(=O)N(c2ccc(Br)cn2)C1c1ccc(F)cc1` (stereo not drawn), the “activity change, negative = inhibition” value was inactive: 15.2%.
With `O=C(NCCCN1CCCC1=O)c1ccc2c(=O)n(-c3ccccc3F)c(=S)[nH]c2c1` the Potency was inconclusive: 31.6 µM [inhibitor, single point].
For `Cc1nc2ccccc2n1Cc1ccc(Cl)cc1`, the Potency was inconclusive: 1.26 µM [inhibitor, full curve].
For `COc1cccc(OC)c1CN1CCCC(C(=O)c2ccccc2SC)C1` (stereo not drawn), the Potency was inconclusive: 10 µM [inhibitor, single point].
For `CCCCCCC(C)OC(=O)Nc1cccc2ccccc12` (stereo not drawn), the “activity change, negative = inhibition” value was inactive: -29.3%.
In the case of `CCC(=O)Nc1ccnc(-c2cccnc2)n1`, the “activity change, negative = inhibition” value is reported as inactive: 16.8%.
In the case of `CSCC[C@H](NC(=O)[C@@H]1Cc2ccccc2CN1)C(=O)Nc1ccc2c(c1)OCCO2`, the “activity change, negative = inhibition” value is reported as inactive: 3.68%.
With `O=C(COC(=O)c1ccc([N+](=O)[O-])o1)Nc1ccc(Br)cc1F` the “activity change, negative = inhibition” value was inactive: 11.1%.
With `CC(=O)c1ccc(OCCCC(=O)NC2CCCc3ccccc32)cc1` (stereo not drawn) the Potency was inconclusive: 31.6 µM [inhibitor, single point].
With `N#C/C(=C\c1ccc(N2CCOCC2)o1)c1nc2ccccc2[nH]1` the Potency was inconclusive: 22.4 µM [inhibitor, single point].
For `CCN(CC)c1ccc(S(=O)(=O)N2CCOCC2)cc1NC(=O)CNCc1cccc(Cl)c1`, the Potency was inconclusive: 31.6 µM [inhibitor, single point].
With `CCC(C)(C)C1CCC2(CC1)NC(=O)N(CC(=O)NCCCc1ccccc1)C2=O` (stereo not drawn) the Potency was inconclusive: 10 µM [inhibitor, partial curve, poor fit].
In the case of `COc1ccc(OC)c(/C=C/C(=O)OCC(=O)Nc2nnc(-c3ccccc3)o2)c1`, the “activity change, negative = inhibition” value is reported as inactive: -5.78%.
With `Nc1ccc(-n2c(N)c(C(=O)NCc3ccc4c(c3)OCO4)c3nc4ccccc4nc32)cc1` the Potency was active: 2.51 µM.
For `CCc1cc(=O)oc2cc3occ(C)c3cc12`, the Potency was inconclusive: 8.91 µM [inhibitor, partial curve].
With `CCCn1c(=O)c(C(=O)NCCc2ccc(Cl)cc2)c(O)c2ccccc21` the Potency was inconclusive: 11.2 µM [inhibitor, partial curve].
For `Cc1nn(Cc2ccccc2)c(C)c1NC(=O)c1ccc([N+](=O)[O-])cc1[N+](=O)[O-]`, the Potency was inconclusive: 2.51 µM [inhibitor, partial curve].
In the case of `O=C(c1cc2ccccc2oc1=O)N(Cc1ccccc1)Cc1ccc2c(c1)OCO2`, the Potency is reported as inconclusive: 10 µM [inhibitor, partial curve].
With `O=C(Nc1cccc(F)c1)c1cc(S(=O)(=O)NCCC2=CCCCC2)ccc1F` the Potency was inconclusive: 31.6 µM [inhibitor, single point].
In the case of `COc1ccc(Nc2nc(C(=O)N3CCc4cc(OC)c(OC)cc4C3)cs2)cc1`, the Potency is reported as inconclusive: 31.6 µM [inhibitor, single point].
In the case of `CC(=O)c1ccc(NC(=O)Nc2ccc(S(=O)(=O)N3CCCC3)cc2)cc1`, the Potency is reported as inconclusive: 0.501 µM [inhibitor, partial curve, poor fit].
For `O=C(O)CC1(CC(=O)Nc2ccc(Br)cc2)CCCCC1`, the “activity change, negative = inhibition” value was inactive: 7.25%.
In the case of `Cc1cc(NC(=O)CSc2ccc(F)cc2)no1`, the “activity change, negative = inhibition” value is reported as inactive: -8.31%.
In the case of `NC(=O)c1ccsc1NC(=O)c1ccc([N+](=O)[O-])o1`, the Potency is reported as inconclusive: 11.2 µM [inhibitor, single point].
With `Clc1ccc2nc(C3CCN(Cc4ccccc4)CC3)[nH]c2c1` the Potency was inconclusive: 12.6 µM [inhibitor, partial curve].
In the case of `N/C(=N\OC(=O)c1ccc(Cl)cc1[N+](=O)[O-])c1ccccn1`, the Potency is reported as inconclusive: 12.6 µM [inhibitor, partial curve].
For `O=C(COc1ccc(Cl)cc1Cl)Nc1ccc(CN2CCOCC2)cc1`, the Potency was inconclusive: 31.6 µM [inhibitor, single point].
For `CC(=O)c1ccc(OC(C)C(=O)OCC(=O)NCCc2ccccc2)cc1` (stereo not drawn), the “activity change, negative = inhibition” value was inactive: 30%.
In the case of `CCOc1cc(/C=N/Nc2nc(N3CCCCC3)nc(N3CCCCC3)n2)ccc1OC(=O)c1ccco1`, the Potency is reported as inconclusive: 11.2 µM [inhibitor, single point].
With `CC1(C)CC(C)(c2ccc(O)cc2O)N(c2ccc3ccccc3c2)C(=S)N1` (stereo not drawn) the Potency was active: 10 µM.
In the case of `COc1ccc(N(C)S(=O)(=O)c2cccc(C(=O)Nc3nc(C)cs3)c2)cc1`, the Potency is reported as inconclusive: 31.6 µM [inhibitor, single point].
With `CC(C)C1=Nc2cccc3cccc(c23)N1` the Potency was inconclusive: 20 µM [inhibitor, single point].
With `CCOc1ccc(CCNC(=O)Nc2ccccc2C)cc1OCC` the Potency was inconclusive: 12.6 µM [inhibitor, partial curve].
For `Clc1ccc(-n2nnnc2-c2cnc3ccccc3c2-c2ccccc2)cc1`, the Potency was inconclusive: 31.6 µM [inhibitor, single point].
With `Cc1cc(OC(F)F)ccc1NC(=S)NC1CCCC1` the “activity change, negative = inhibition” value was inactive: -24.4%.
For `Cc1c(N=C2NC(=O)/C(=C/c3ccc(O)cc3)S2)c(=O)n(-c2ccccc2)n1C`, the “activity change, negative = inhibition” value was inactive: -13.8%.

Reference: PubChem BioAssay AID651820 (National Center for Advancing Translational Sciences (NCATS), 2012)
% is scaled to controls: 0 for no effect and ±100 for the full control effect; potency is read from the fitted curve at half-maximal effect; tags tell the direction and shape of the fitted curve.
